The target of assay [1] is ABI1 (endogenous, SK-OV3 cells) (human (endogenous in SK-OV3)) (UniProt Q8IZP0). Description: co-IP; endogenous proteins; SK-OV3 cells treated with LPA for 5 min; lysate incubated with anti-ABI1 antibody at 4 °C overnight, then beads; western blot with anti-SOS1 or anti-EPS8. For orientation: Immunoblotting shows a protein as a band on a membrane.
The target of assay [2] is GST-fused poly-proline+PxxDY region of ABI1 (human) (UniProt Q8IZP0). Description: pull-down; GST-fused ABI1 fragments on beads incubated with LPA-treated OVCAR3 cell lysates for 2 h; immunoblot for SOS1 or EPS8; only the target purified.
Assay [3] addresses HA-tagged SNARE region of ABI1 (aa 45-107) (human) (UniProt Q8IZP0). Description: co-IP; OVCAR3 cells (no ABI1 expression) co-transfected with tagged constructs (HA-ABI1 or its regions, Flag-SOS1 or its region, Myc-EPS8 or its region); 12 h starvation, 20 μM LPA; lysates.
Assay [4] has as its target HA-tagged HHR region of ABI1 (aa 93-169) (human) (UniProt Q8IZP0). The assay is described as above.
For assay [5], the target named is HA-tagged ABI1 (human) (UniProt Q8IZP0). Described as above.
Assay [6] deals with HA-tagged WAB region of ABI1 (aa 1-79) (human) (UniProt Q8IZP0). Described as above.
In assay [7] the target is HA-tagged poly-proline region of ABI1 (aa 341-418) (human) (UniProt Q8IZP0). The description is as above.
In assay [8] the target is HA-tagged SH3 region of ABI1 (aa 419-508) (human) (UniProt Q8IZP0). Described as above.
In assay [9] the target is HA-tagged proline-rich region of ABI1 (aa 170-340) (human) (UniProt Q8IZP0). The assay is described as above.
For assay [10], the target named is HA-tagged poly-proline+PxxDY region of ABI1 (aa 341-425) (human) (UniProt Q8IZP0). The description is as above.
For assay [11], the target named is GST-ABI1 (on beads) (human) (UniProt Q8IZP0). Description: pull-down; GST-ABI1 beads with LPA-stimulated SK-OV3 cell lysates to which peptides (10 μM) were added 1 h before; immunoblot for SOS1 or EPS8; only the target purified.
Assay [12] has the same target. Description: pull-down; data not shown: GST-ABI1 beads with SK-OV3 cell lysates and 15-aa peptides (10 μM); immunoblot for SOS1; only the target purified.
Assay [13] concerns the target GST-fused SH3 region of ABI1 (human) (UniProt Q8IZP0). Description: pull-down; GST-fused ABI1 fragments on beads incubated with LPA-treated OVCAR3 cell lysates for 2 h; immunoblot for SOS1 or EPS8; only the target purified.

The chains behind the UniProt entries cited, without tags or fusion partners. Where a name states a change or a piece, a line headed by the entry shows the natural chain unless it says otherwise. A line that says so, or that is headed by a name, gives the form on record, which may keep a tag or linker. Residues count along the entry.
UniProt Q8IZP0: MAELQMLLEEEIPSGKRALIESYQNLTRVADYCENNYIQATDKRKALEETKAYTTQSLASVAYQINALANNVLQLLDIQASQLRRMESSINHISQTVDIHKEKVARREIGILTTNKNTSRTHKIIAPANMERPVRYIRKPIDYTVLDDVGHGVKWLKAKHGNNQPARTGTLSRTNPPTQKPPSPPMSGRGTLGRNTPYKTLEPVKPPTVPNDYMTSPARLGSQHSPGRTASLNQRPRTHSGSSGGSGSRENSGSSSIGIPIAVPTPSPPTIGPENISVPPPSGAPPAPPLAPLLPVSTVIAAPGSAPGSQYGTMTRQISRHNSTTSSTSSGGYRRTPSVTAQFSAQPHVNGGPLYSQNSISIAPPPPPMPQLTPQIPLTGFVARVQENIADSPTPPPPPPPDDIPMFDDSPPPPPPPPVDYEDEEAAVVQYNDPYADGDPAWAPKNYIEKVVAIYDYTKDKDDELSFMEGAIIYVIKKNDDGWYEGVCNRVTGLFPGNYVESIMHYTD
HA-tagged WAB region of ABI1 (aa 1-79): residues 1-79 of Q8IZP0
HA-tagged SNARE region of ABI1 (aa 45-107): residues 45-107 of Q8IZP0
HA-tagged HHR region of ABI1 (aa 93-169): residues 93-169 of Q8IZP0
HA-tagged proline-rich region of ABI1 (aa 170-340): residues 170-340 of Q8IZP0
HA-tagged poly-proline+PxxDY region of ABI1 (aa 341-425): residues 341-425 of Q8IZP0
HA-tagged poly-proline region of ABI1 (aa 341-418): residues 341-418 of Q8IZP0
GST-fused SH3 region of ABI1: residues 419-508 of Q8IZP0
UniProt Q12929: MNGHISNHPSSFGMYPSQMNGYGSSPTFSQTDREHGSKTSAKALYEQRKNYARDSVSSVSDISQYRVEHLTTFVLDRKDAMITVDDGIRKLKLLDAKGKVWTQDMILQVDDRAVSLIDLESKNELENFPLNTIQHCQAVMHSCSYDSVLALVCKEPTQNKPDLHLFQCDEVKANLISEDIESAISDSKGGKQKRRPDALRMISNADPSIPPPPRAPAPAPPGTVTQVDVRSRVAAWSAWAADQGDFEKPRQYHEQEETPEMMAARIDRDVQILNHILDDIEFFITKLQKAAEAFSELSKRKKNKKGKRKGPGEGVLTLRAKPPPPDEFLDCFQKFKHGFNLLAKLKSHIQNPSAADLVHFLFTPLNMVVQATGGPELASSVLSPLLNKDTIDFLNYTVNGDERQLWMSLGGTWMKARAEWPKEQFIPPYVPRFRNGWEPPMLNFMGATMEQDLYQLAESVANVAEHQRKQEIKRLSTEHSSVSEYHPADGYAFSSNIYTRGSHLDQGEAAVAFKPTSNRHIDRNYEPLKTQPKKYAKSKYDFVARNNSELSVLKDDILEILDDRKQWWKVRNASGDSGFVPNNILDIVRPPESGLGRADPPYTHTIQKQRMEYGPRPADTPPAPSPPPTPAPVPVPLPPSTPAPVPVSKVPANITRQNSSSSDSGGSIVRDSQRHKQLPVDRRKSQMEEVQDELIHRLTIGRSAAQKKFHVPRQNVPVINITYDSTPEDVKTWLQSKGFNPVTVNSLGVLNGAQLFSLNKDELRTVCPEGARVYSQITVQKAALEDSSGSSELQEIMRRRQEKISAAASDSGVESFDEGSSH

The text below walks through data of publication PMC6727365.

Results are given in words; binding and its absence hold for the method and conditions named. In cells and extracts the contact can be indirect. Some results given as binding are weak or reduced against the parent protein; the word gives no strength.

Take “EPS8 (endogenous, SK-OV3 cells) (from UniProt Q12929 1-822)”: in [1], the binding result was “binds”.

“EPS8 in OVCAR3 cell lysate (from UniProt Q12929 1-822)”: the binding entry in assay [2] is on record as “binds”.

For “Flag-tagged SOS1 (from UniProt Q07889 1-1333)”, the binding result in assay [3] was “no binding”; in [4], “no binding”; in [5], “binds”; in assay [6], “no binding”; in assay [7] it was “no binding”; in [8], “binds”. For the same substance, the binding entry in assay [9] was “no binding”.

Turning to “Flag-tagged proline-rich region of SOS1 (aa 1131-1333) (from UniProt Q07889 1131-1333) (domain or fragment)”, the binding result in assay [5] was “binds”.

Turning to “Myc-tagged EPS8 (from UniProt Q12929 1-822)”, the binding entry in assay [3] is reported as “no binding”; in assay [10], “binds”; in [4], “no binding”; in assay [5] it was “binds”; in assay [6], “no binding”; in [7], “no binding”. Also, the binding entry in assay [8] and in [9] was “no binding” throughout.

With “Myc-tagged SH3 region of EPS8 (aa 535-586) (from UniProt Q12929 535-586) (domain or fragment)”, the binding result in [5] is given as “binds”.

Regarding “SOS1 (endogenous, SK-OV3 cells) (from UniProt Q07889 1-1333)”, the binding result in [1], in assay [11] and in [12] was “binds” in each case.

“SOS1 in OVCAR3 cell lysate (from UniProt Q07889 1-1333)”: in assay [13], the binding entry is recorded as “binds”.
